In all, about 81,000 sequences were measured (“one-hybrid fitness for binding NBS DNA”: median about -0.1, highest 2% from about 0.36 on). Some of the results follow.
B1: Caulobacter ParB omega fusion; a variant is named by its letters at X, in order, B8GW30 (parent)
chain: MESVVVGEPGMSEGRRGLGRGLSALLGEVDAAPAQAPGEQLGGSREAPIEILQRNPDQPRRTFREEDLEDLSNSIREKGVLQPILVRPSPDTAGEYQIVAGERAWRAAQRAGLKTVPIMVRELDDLAVLEIGIIENVQRADLNVLEEALSYKVLMEKFERTQENIAQTIGKSXSHVANXMRLLXLPDEVQSYLVSGELTAXHARAIAAAADPVALAKQIIEGGLSVRETEALARKAPNLSAGKSKGGRPPRVKDTDTQALESDLSSVLGLDVSIDHRGSTGTLTITYATLEQLDDLCNRLTRGI

Variants of: B1
Assay: one-hybrid fitness for binding NBS DNA (the Noc-binding site; scaled: cognate 1, non-cognate 0); higher = stronger binding
Conditions: with NBS DNA site
In short: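 Fitness here means the log change in variant-to-wild-type read ratio between plasmids sequenced before and after selection. That scale was set so cognate equals 1 and non-cognate equals 0. The selection was a bacterial one-hybrid screen of Caulobacter ParB libraries, four specificity codons randomised, in E. coli USO carrying a HIS3 reporter with the site 19 bp from the promoter, grown 48 hours at 37°C on M9-minus-histidine with 0.1 mM IPTG and 5 mM 3-AT.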

Variant	one-hybrid fitness for binding NBS DNA
PRCI	≤ 0.2
QCGW	≤ 0.2
RGYA	≤ 0.2
NAVR	≤ 0.2
RIAS	0.345
QYGT	0.421
IPTW	≤ 0.2
NIER	≤ 0.2
DPEK	≤ 0.2
CLER	≤ 0.2
TADT	≤ 0.2
FRSL	≤ 0.2
TARH	≤ 0.2
QTFM	≤ 0.2
SADT	≤ 0.2
RVSH	≤ 0.2
GVDR	≤ 0.2
ACEH	≤ 0.2
AFQR	≤ 0.2
ATKC	≤ 0.2
LRWV	≤ 0.2
SDTI	≤ 0.2
NYGR	≤ 0.2
SRSF	≤ 0.2

Variant	one-hybrid fitness for binding NBS DNA
IWSG	≤ 0.2
RPTI	≤ 0.2
SYVR	≤ 0.2
CLRM	≤ 0.2
RMEA	≤ 0.2
HGLP	≤ 0.2
MHNR	≤ 0.2
DVNN	≤ 0.2
CGCG	≤ 0.2
EGWC	≤ 0.2
FRMW	≤ 0.2
AQVE	≤ 0.2
NTQY	≤ 0.2
KPIK	≤ 0.2
QQRC	0.455
QPQE	≤ 0.2
ARHG	≤ 0.2
YGEP	≤ 0.2
LGRT	≤ 0.2
YSIW	≤ 0.2
YIGV	≤ 0.2
NGSC	≤ 0.2
MPGA	≤ 0.2
PACE	≤ 0.2

Variant	one-hybrid fitness for binding NBS DNA
NEIL	≤ 0.2
CTWT	≤ 0.2
LFGT	≤ 0.2
KHSL	≤ 0.2
TVEW	≤ 0.2
QGPV	≤ 0.2
QHPE	≤ 0.2
LEEV	≤ 0.2
VGCG	≤ 0.2
RYMH	≤ 0.2
TKSV	≤ 0.2
IMCS	≤ 0.2
PPLQ	≤ 0.2
ATRT	≤ 0.2
KQLL	≤ 0.2
DFGS	≤ 0.2
SSVH	≤ 0.2
QVSF	≤ 0.2
QLNG	≤ 0.2
KRRP	≤ 0.2
YKKC	≤ 0.2
ASMV	≤ 0.2
HSDI	≤ 0.2
GNTW	≤ 0.2

Variant	one-hybrid fitness for binding NBS DNA
AINK	≤ 0.2
RNIP	≤ 0.2
SCWR	≤ 0.2
RSCG	≤ 0.2
QTHE	≤ 0.2
HGLL	≤ 0.2
LRRK	≤ 0.2
YDSW	≤ 0.2
AQKK	≤ 0.2
RHQH	≤ 0.2
APTH	≤ 0.2
RTMV	≤ 0.2
WHVC	≤ 0.2
TAAL	≤ 0.2
GCFS	≤ 0.2
TTKN	≤ 0.2
ILAP	≤ 0.2
KGRT	≤ 0.2
PGIN	≤ 0.2
NVWT	≤ 0.2
LTKQ	≤ 0.2
KTTK	≤ 0.2
NFDE	≤ 0.2
ILLD	≤ 0.2

Variant	one-hybrid fitness for binding NBS DNA
CIGV	≤ 0.2
FGAC	≤ 0.2
AAAS	≤ 0.2
LVMC	≤ 0.2
RYMF	≤ 0.2
AKNS	≤ 0.2
HNSA	≤ 0.2
CYPM	≤ 0.2
TPCT	≤ 0.2
GKTM	≤ 0.2
RGNS	≤ 0.2
ESPA	≤ 0.2
FLRD	≤ 0.2
HICR	≤ 0.2
PHKT	≤ 0.2
QHKE	0.246
KFGS	≤ 0.2
PDLR	≤ 0.2
GWNN	≤ 0.2
KIPV	≤ 0.2
PVDM	≤ 0.2
NPYT	≤ 0.2
DNKS	≤ 0.2
GMVF	≤ 0.2

Variant	one-hybrid fitness for binding NBS DNA
TMPT	≤ 0.2
EQYW	≤ 0.2
TVRS	≤ 0.2
YSGT	≤ 0.2
HTPT	≤ 0.2
EHEC	≤ 0.2
SSAL	≤ 0.2
GCSG	≤ 0.2
ILNK	≤ 0.2
PIYP	≤ 0.2
HHPY	≤ 0.2
ICYR	≤ 0.2
TDSF	≤ 0.2
THAN	≤ 0.2
RHKI	≤ 0.2
TNFE	≤ 0.2
VDWL	≤ 0.2
LWYC	≤ 0.2
ATVN	≤ 0.2
IRTC	≤ 0.2
DMYC	≤ 0.2
FVRR	≤ 0.2
AYNV	≤ 0.2
EVKM	≤ 0.2

Variant	one-hybrid fitness for binding NBS DNA
YWVS	≤ 0.2
MQYL	≤ 0.2
TIGA	≤ 0.2
RSLY	≤ 0.2
MSAV	≤ 0.2
EITA	≤ 0.2
HNKG	≤ 0.2
HPKT	≤ 0.2
YISC	≤ 0.2
HYVF	≤ 0.2
SKTT	≤ 0.2
QIPT	≤ 0.2
SVAS	≤ 0.2
TNLF	≤ 0.2
EMKL	≤ 0.2
YATF	≤ 0.2
FPYL	≤ 0.2
YTLV	≤ 0.2
TVSY	≤ 0.2
RQVR	0.258
LVPM	≤ 0.2
FSRL	≤ 0.2
SDNA	≤ 0.2
QNYI	≤ 0.2

Variant	one-hybrid fitness for binding NBS DNA
FNGF	≤ 0.2
PDAQ	≤ 0.2
CKYR	≤ 0.2
AQMS	≤ 0.2
STWN	≤ 0.2
ALLG	≤ 0.2
NPEF	≤ 0.2
IVNT	≤ 0.2
TTWT	≤ 0.2
PVQS	≤ 0.2
VYES	≤ 0.2
LFYT	≤ 0.2
PHKG	≤ 0.2
RQYW	≤ 0.2
SHES	≤ 0.2
IYTP	≤ 0.2
AGMK	≤ 0.2
RKPN	≤ 0.2
ATKQ	≤ 0.2
HQPC	≤ 0.2
SWVT	≤ 0.2
DTNA	≤ 0.2
HFDR	≤ 0.2
HRSS	≤ 0.2

Variant	one-hybrid fitness for binding NBS DNA
MYGY	≤ 0.2
SCSS	≤ 0.2
VSIM	≤ 0.2
MMVS	≤ 0.2
KAGY	≤ 0.2
FFAA	≤ 0.2
RQDF	≤ 0.2
MRRS	≤ 0.2
PENC	≤ 0.2
LLYT	≤ 0.2
AFGN	≤ 0.2
QTDW	≤ 0.2
RRGL	≤ 0.2
LSLH	≤ 0.2
RASN	≤ 0.2
GSDN	≤ 0.2
EAIG	≤ 0.2
LWSS	≤ 0.2
MNPS	≤ 0.2
TVSE	≤ 0.2
GWFR	≤ 0.2
DKCC	≤ 0.2
KKYT	0.249
VASR	≤ 0.2

Variant	one-hybrid fitness for binding NBS DNA
RKSI	≤ 0.2
YTDK	≤ 0.2
KLLC	≤ 0.2
DKQL	≤ 0.2
DGKP	≤ 0.2
SIWV	≤ 0.2
RRRD	0.202
VQGT	≤ 0.2
QHCY	≤ 0.2
RLVG	≤ 0.2
SLQE	≤ 0.2
RWVP	≤ 0.2
RKAT	0.643
SLYK	≤ 0.2
KPIR	≤ 0.2
QMIR	0.398
AVRT	≤ 0.2
QASN	≤ 0.2
SPPF	≤ 0.2
GPRF	≤ 0.2
IWQL	≤ 0.2
IAKA	≤ 0.2
FTNS	≤ 0.2
LGRV	≤ 0.2

Variant	one-hybrid fitness for binding NBS DNA
ATTE	≤ 0.2
VKEC	≤ 0.2
VWAR	≤ 0.2
TCRG	≤ 0.2
PDCF	≤ 0.2
HSDW	≤ 0.2
LLVW	≤ 0.2
PMLW	≤ 0.2
AWRC	≤ 0.2
GMTM	≤ 0.2
CAVE	≤ 0.2
TPKY	≤ 0.2
NSTD	≤ 0.2
NMHT	≤ 0.2
ILYW	≤ 0.2
KKNA	≤ 0.2
TPLL	≤ 0.2
QAMG	≤ 0.2
LWIR	≤ 0.2
WYWS	≤ 0.2
YLHW	≤ 0.2
ANAV	≤ 0.2
KRWN	≤ 0.2
CLHS	≤ 0.2

Variant	one-hybrid fitness for binding NBS DNA
NYIT	≤ 0.2
DDTV	≤ 0.2
PLNA	≤ 0.2
GPRH	≤ 0.2
MKNT	≤ 0.2
AIYI	≤ 0.2
RHYP	≤ 0.2
FSKG	≤ 0.2
HLRK	≤ 0.2
LDSE	≤ 0.2
GQKR	0.201
GWQR	≤ 0.2
GTIC	≤ 0.2
HPYT	≤ 0.2
WYTC	≤ 0.2
KGHS	≤ 0.2
PVVK	≤ 0.2
QYAW	≤ 0.2
KMCR	≤ 0.2
PSEF	≤ 0.2
PCFG	≤ 0.2
TNDI	≤ 0.2
FRNH	≤ 0.2
LFCS	≤ 0.2

Variant	one-hybrid fitness for binding NBS DNA
PSWF	≤ 0.2
NVNK	≤ 0.2
SFCS	≤ 0.2
ANPG	≤ 0.2
HRMH	≤ 0.2
VMSN	≤ 0.2
MHNW	≤ 0.2
TVWG	≤ 0.2
TFTL	≤ 0.2
RPNF	≤ 0.2
NISA	≤ 0.2
KVSN	≤ 0.2
MAFE	≤ 0.2
QVDT	≤ 0.2
KLMP	≤ 0.2
QERV	≤ 0.2
WWHL	≤ 0.2
SHMC	≤ 0.2
